Test results published in the supplement of paper PMC3334620.
In all, about 33,000 sequences were measured (“E-score (-0.5 to 0.5)”: median about -0.032, highest 2% from about 0.36 on). The list shows a part of the results.

Each sequence was assayed against T1, Sko1 (UniProt Q02100) (assay: PBM E-score (8-mer binding enrichment) (E-score (-0.5 to 0.5)); higher = stronger / more preferred TF binding; most listed sequences are background and not binding sites). Details: protein concentration: 200 nM; construct: GST-full length.
T1 sequence: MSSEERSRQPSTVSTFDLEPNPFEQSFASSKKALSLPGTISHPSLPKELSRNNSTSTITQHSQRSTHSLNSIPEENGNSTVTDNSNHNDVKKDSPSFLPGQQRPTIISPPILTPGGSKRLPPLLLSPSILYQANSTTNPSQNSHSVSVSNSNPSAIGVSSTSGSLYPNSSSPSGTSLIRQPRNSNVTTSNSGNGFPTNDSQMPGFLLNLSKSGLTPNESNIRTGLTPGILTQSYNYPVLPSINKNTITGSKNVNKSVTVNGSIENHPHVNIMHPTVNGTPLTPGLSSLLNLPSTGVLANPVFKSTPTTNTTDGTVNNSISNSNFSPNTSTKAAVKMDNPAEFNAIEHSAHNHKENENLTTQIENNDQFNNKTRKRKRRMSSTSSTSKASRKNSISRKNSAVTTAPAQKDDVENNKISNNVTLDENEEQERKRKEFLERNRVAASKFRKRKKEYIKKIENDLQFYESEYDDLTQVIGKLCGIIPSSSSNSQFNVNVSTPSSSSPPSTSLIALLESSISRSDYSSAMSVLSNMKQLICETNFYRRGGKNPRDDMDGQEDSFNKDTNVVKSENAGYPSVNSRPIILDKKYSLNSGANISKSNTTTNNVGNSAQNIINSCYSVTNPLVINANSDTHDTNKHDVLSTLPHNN
Summary of the method: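 Full-length yeast transcription factors or their DNA-binding domains, GST-tagged and expressed with PURExpress, were applied at about 100-200 nM to universal all-10-mer Agilent arrays. These arrays had been made double-stranded by primer extension on fresh or once-stripped slides. Detection used fluorescent anti-GST, normalisation used masliner, and E-scores for ungapped eight-base words pooled with reverse complements came from the Universal PBM Analysis Suite.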
For GATGGTAA, the “PBM E-score” value was -0.0973.
With GATTATCA the “PBM E-score” value was 0.0107.
With AGTTGGCG the “PBM E-score” value was -0.0454.
For GACAGAGA, the “PBM E-score” value was 0.00436.
With CGACGTCG the “PBM E-score” value was 0.209.
AGAGTCAA was tested, and the “PBM E-score” value was -0.224.
For AGCAATAT, the “PBM E-score” value was 0.0119.
GGTAATAA was tested, and the “PBM E-score” value was 0.185.
For CTAATTAC, the “PBM E-score” value was 0.323.
With ACATGCTA the “PBM E-score” value was 0.0885.
With CGAAGCCG the “PBM E-score” value was -0.229.
In the case of AGGTAGCA, the “PBM E-score” value was -0.0865.
In the case of CATGGGAA, the “PBM E-score” value was -0.11.
ATGTACGG was tested, and the “PBM E-score” value was -0.046.
In the case of CTTGTGGA, the “PBM E-score” value was -0.159.
With CGCGTTTA the “PBM E-score” value was 0.103.
AAGGAGAC was tested, and the “PBM E-score” value was -0.0673.
ACGGCCGC was tested, and the “PBM E-score” value was -0.265.
In the case of GGAAGGGA, the “PBM E-score” value was -0.287.
With AGAAGGGA the “PBM E-score” value was -0.196.
GGAGGTTA was tested, and the “PBM E-score” value was -0.204.
AAACAACT was tested, and the “PBM E-score” value was 0.0554.
GCCGAGCA was tested, and the “PBM E-score” value was -0.209.
With GTATATCA the “PBM E-score” value was 0.311.
With AAAGAGGA the “PBM E-score” value was -0.291.
In the case of CGGTCAGC, the “PBM E-score” value was -0.369.
For AAATTAGC, the “PBM E-score” value was -0.0567.
CACCTCCC was tested, and the “PBM E-score” value was -0.238.
For TTCTGAAA, the “PBM E-score” value was 0.0361.
In the case of CATTTGCC, the “PBM E-score” value was -0.271.
In the case of ATACTGTA, the “PBM E-score” value was 0.0855.
GACGTCTA was tested, and the “PBM E-score” value was 0.358.
ACAACCGG was tested, and the “PBM E-score” value was -0.197.
CGAGTACC was tested, and the “PBM E-score” value was -0.0647.
In the case of AGGCGCAC, the “PBM E-score” value was -0.0624.
AATGATAC was tested, and the “PBM E-score” value was 0.193.
In the case of CACTTCAA, the “PBM E-score” value was 0.0988.
For CACTGATC, the “PBM E-score” value was -0.128.
In the case of CGCCCTTA, the “PBM E-score” value was -0.134.
CCTGAAAC was tested, and the “PBM E-score” value was 0.0107.
CTTTACCC was tested, and the “PBM E-score” value was -0.0701.
For CGGCATGA, the “PBM E-score” value was 0.11.
In the case of CATATTCA, the “PBM E-score” value was 0.159.
AGGGTGAA was tested, and the “PBM E-score” value was -0.146.
With CTGCGTGC the “PBM E-score” value was 0.00792.
For CCCTGCTC, the “PBM E-score” value was -0.312.
GGAGACCA was tested, and the “PBM E-score” value was -0.312.
CTCTAGGC was tested, and the “PBM E-score” value was -0.274.
In the case of CCGGACGG, the “PBM E-score” value was -0.234.
With ATACGTGG the “PBM E-score” value was 0.429.
With GGTTTGAC the “PBM E-score” value was 0.0235.
With CGTAGAAG the “PBM E-score” value was 0.18.
TAAATCCA was tested, and the “PBM E-score” value was 0.1.
ACTACGAC was tested, and the “PBM E-score” value was 0.181.
In the case of ATATCTGG, the “PBM E-score” value was -0.308.
With CTTCATTC the “PBM E-score” value was -0.0754.
In the case of CTCCGCAG, the “PBM E-score” value was -0.185.
In the case of GCATATAA, the “PBM E-score” value was 0.121.
In the case of CTCGCTCA, the “PBM E-score” value was -0.072.
For CACATTGC, the “PBM E-score” value was 0.0893.
In the case of CTGCCTTA, the “PBM E-score” value was -0.107.
In the case of ATCGGATA, the “PBM E-score” value was 0.0265.
CGTGATCC was tested, and the “PBM E-score” value was 0.171.
For CACCCTAC, the “PBM E-score” value was 0.0999.
In the case of CTGGCGCC, the “PBM E-score” value was -0.181.
In the case of CGGGGAGA, the “PBM E-score” value was -0.286.
For CCCTAAAG, the “PBM E-score” value was -0.213.
In the case of CTGAGCTC, the “PBM E-score” value was -0.133.
In the case of AAGCAAGG, the “PBM E-score” value was -0.226.
TACCAGGA was tested, and the “PBM E-score” value was -0.175.
In the case of AACCTCAG, the “PBM E-score” value was -0.157.
For TAAAGTCA, the “PBM E-score” value was -0.0259.
With ATGTAGCA the “PBM E-score” value was -0.0391.
In the case of TTAGTGAA, the “PBM E-score” value was -0.00461.
With ACTATATG the “PBM E-score” value was 0.0826.
For AGAATCGG, the “PBM E-score” value was -0.0821.
CAAGGCCC was tested, and the “PBM E-score” value was -0.291.
With CAAAAGAC the “PBM E-score” value was 0.0114.
In the case of GATGCCCA, the “PBM E-score” value was 0.0393.
In the case of GAGGATGC, the “PBM E-score” value was -0.137.
With TATTGCAA the “PBM E-score” value was 0.014.
CGCAAAAG was tested, and the “PBM E-score” value was 0.124.
With CGTACCTA the “PBM E-score” value was 0.164.
CGACTCAC was tested, and the “PBM E-score” value was -0.109.
With CATATCCC the “PBM E-score” value was -0.0572.
For GGAAGCAC, the “PBM E-score” value was 0.0625.
AGGGGAAT was tested, and the “PBM E-score” value was -0.0405.
CTAGAGAA was tested, and the “PBM E-score” value was -0.095.
CTTAGAGA was tested, and the “PBM E-score” value was -0.129.
In the case of CCCCTTCC, the “PBM E-score” value was -0.201.
For ACTAAAGG, the “PBM E-score” value was -0.0392.
ATTCACAA was tested, and the “PBM E-score” value was 0.245.
With GAATGGGC the “PBM E-score” value was -0.224.
In the case of CGCACGCG, the “PBM E-score” value was 0.136.
For CAGAGCAC, the “PBM E-score” value was -0.113.
GATCTGGC was tested, and the “PBM E-score” value was 0.0354.
GGGGGCAC was tested, and the “PBM E-score” value was -0.26.
ATCGGTGG was tested, and the “PBM E-score” value was -0.127.
For ATCCGATG, the “PBM E-score” value was -0.0255.
AGGGCCCA was tested, and the “PBM E-score” value was -0.411.
With ACCCATCA the “PBM E-score” value was -0.054.
For AACTGGCT, the “PBM E-score” value was -0.00996.
For AGAGCGGG, the “PBM E-score” value was -0.328.
CGAAGGCC was tested, and the “PBM E-score” value was -0.321.
With AAAAGGCG the “PBM E-score” value was -0.037.
With GATAAGGC the “PBM E-score” value was -0.0671.
With AATAAATC the “PBM E-score” value was 0.0368.
CCTAATCC was tested, and the “PBM E-score” value was -0.11.
In the case of GAGTTGAA, the “PBM E-score” value was -0.0752.
With CTTCCCGC the “PBM E-score” value was -0.0138.
In the case of CATACGAA, the “PBM E-score” value was 0.308.
For GTCCCCTA, the “PBM E-score” value was -0.169.
For AGTGAACT, the “PBM E-score” value was -0.0716.
In the case of CCATAAGG, the “PBM E-score” value was -0.224.
In the case of AATCGGCG, the “PBM E-score” value was -0.0909.
In the case of TAAGGTCA, the “PBM E-score” value was 0.0163.
With ACGTCGCT the “PBM E-score” value was 0.308.
In the case of CACTGCAA, the “PBM E-score” value was 0.0303.
For GGTTCCAC, the “PBM E-score” value was -0.283.
CGCCCGGA was tested, and the “PBM E-score” value was -0.211.
For AGTTTCCG, the “PBM E-score” value was -0.0487.
For CAGTCTAG, the “PBM E-score” value was -0.246.
In the case of ATTGGGCA, the “PBM E-score” value was -0.079.
In the case of ACGGCCCA, the “PBM E-score” value was -0.317.
For ATCGCTGG, the “PBM E-score” value was -0.237.
CTAGGTCA was tested, and the “PBM E-score” value was 0.154.
In the case of ACGTAGAA, the “PBM E-score” value was 0.434.
For ATCATCTC, the “PBM E-score” value was 0.148.
TGAATCAA was tested, and the “PBM E-score” value was 0.143.
With AAACACCA the “PBM E-score” value was 0.0437.
GTTCAACA was tested, and the “PBM E-score” value was 0.0601.
In the case of AAAGTCTA, the “PBM E-score” value was 0.0758.
ATTCCACA was tested, and the “PBM E-score” value was 0.085.
In the case of GAGAACAA, the “PBM E-score” value was 0.138.
With ACTGACGC the “PBM E-score” value was 0.334.
With CACCTTCC the “PBM E-score” value was -0.146.
In the case of CCCATCAA, the “PBM E-score” value was -0.00778.
TGCTGCCA was tested, and the “PBM E-score” value was -0.0316.
With GTATAGGA the “PBM E-score” value was 0.0565.
For AAGTTCCC, the “PBM E-score” value was -0.187.
For GCCCCAGC, the “PBM E-score” value was -0.239.
AGGACTTG was tested, and the “PBM E-score” value was -0.208.
In the case of GCGAAGGA, the “PBM E-score” value was -0.203.
With ACGAGCGT the “PBM E-score” value was 0.0806.
In the case of CGTCTGGA, the “PBM E-score” value was -0.137.
AGCCATGC was tested, and the “PBM E-score” value was -0.207.
For AACTTAGA, the “PBM E-score” value was 0.138.
With AGATGGGG the “PBM E-score” value was -0.324.
For GGATCCTA, the “PBM E-score” value was -0.185.
In the case of AAATAGCA, the “PBM E-score” value was 0.107.
With GACATTGA the “PBM E-score” value was 0.0998.
CCATCCAG was tested, and the “PBM E-score” value was -0.224.
In the case of CTCGCGGA, the “PBM E-score” value was -0.282.
In the case of ATTTCCAA, the “PBM E-score” value was -0.048.
For AGCTTTAT, the “PBM E-score” value was -0.0333.
AGCTCACA was tested, and the “PBM E-score” value was -0.0159.
In the case of CACTAGAC, the “PBM E-score” value was -0.0756.
In the case of ATAGTGCA, the “PBM E-score” value was 0.0776.
For ACTGCTAA, the “PBM E-score” value was -0.215.
For CCAACCGA, the “PBM E-score” value was 0.00601.
In the case of AGGCCCCA, the “PBM E-score” value was -0.232.
With GATGCAGA the “PBM E-score” value was -0.0834.
In the case of CCTGAACG, the “PBM E-score” value was -0.143.
For CTAACGAG, the “PBM E-score” value was 0.0316.
ACACACAA was tested, and the “PBM E-score” value was 0.252.
With CCGGTTCG the “PBM E-score” value was -0.215.
AGCTGAGG was tested, and the “PBM E-score” value was -0.232.
For CGAGGACC, the “PBM E-score” value was -0.0757.
CGAGCGCC was tested, and the “PBM E-score” value was -0.234.
With ACCCCTAA the “PBM E-score” value was -0.197.
With ACAAACGT the “PBM E-score” value was 0.343.
For ACAAAGGT, the “PBM E-score” value was 0.0392.
